Drawing on the RNAGym collection of RNA variant scans (doi:10.7554/elife.90254), this text covers self-cleavage for 167 variants.

B1: LINE1-mini (parent)
chain: GGCAGAGCUCAACACAGCGUGGCAAAGUGGCUGUGGCUAGACUGCC

Read counts are not given, so values of variants with three or more changes are uncertain.

Variants of B1 are the subject of this data set. Put plainly: self-cleavage, relative activity (ratio to wild type); higher = more cleavage; in vitro, sequencing; the parent is a self-cleaving ribozyme.
Consider G2C G21A G22A C42U C45A, for which the self-cleavage was found to be 0.1.

G1A C3G G7C A11G G22U G27A: the self-cleavage turned out to be 0.14.

In the case of G2U C8A C13A C18A, the self-cleavage was 0.

In the case of A4C U9A A16U G30A, the self-cleavage was determined as 0.04.

Consider G1U C15G G17A G19A G22U U38A, for which the self-cleavage is 0.01.

Take U9G G17C C42A: the self-cleavage was determined as 0.03.

On to A11C A16G U38A, for which the self-cleavage was 0.01.

Turning to A6G C18U G36U, the self-cleavage amounted to 0.1.

With G1C A4U G19C, the self-cleavage turned out to be 0.04.

As for C8G C15G U28C, the self-cleavage is 0.02.

Consider A6C G35U A39C, for which the self-cleavage was 0.11.

For the variant A12G G27A C37U, the self-cleavage worked out at 0.04.

For C18G C23U G35A G36U, the self-cleavage worked out at 0.04.

For A4U U9C G22C C45A, the self-cleavage was found to be 0.02.

Turning to U9C C10A A14C, the self-cleavage was 0.05.

For G2A A4C U9C G29A, the self-cleavage was 0.02.

On to G2U U9G G29U G40C, for which the self-cleavage stood at 0.03.

C3A C15A C46G: the self-cleavage came out at 0.08.

As to G7C G17A C18G G36C C42A, the self-cleavage came out at 0.01.

C13G A16C G33A U34C: the self-cleavage turned out to be 0.06.

Turning to G1U C10A G30C G44A, the self-cleavage is 0.02.

Consider G22U C23U C31U, for which the self-cleavage was found to be 0.65.

Consider C3G A11U G33U U34G A39U, for which the self-cleavage came out at 0.01.

Turning to G1U A12G U20A U38A, the self-cleavage stood at 0.02.

As to A11G A14C G17U C23G G33A G40U, the self-cleavage was determined as 0.

Take G5U A11U C23A U28G: the self-cleavage was 0.01.

As for G5U C8A A11G A14U A16G, the self-cleavage turned out to be 0.02.

For G2C G21U G27A U28G G29U, the self-cleavage is 0.08.

For the variant A24U A26U U28C G33U, the self-cleavage was 0.2.

A16C U32G G36C: the self-cleavage turned out to be 0.03.

Regarding A12G G17A G40C, the self-cleavage was determined as 0.04.

As to C10U U38G A41U, the self-cleavage came out at 0.01.

With G2U C8U C13U G21C U28C, the self-cleavage turned out to be 0.07.

As to A11G G22U A26G G36U, the self-cleavage stood at 0.01.

As for U20G U28G A39U, the self-cleavage worked out at 0.04.

With C3G C13U G29A U43C G44U, the self-cleavage was determined as 0.08.

With C3G G7C G33A, the self-cleavage is 0.01.

For the variant G22A G33U U38A, the self-cleavage is 0.08.

For G22U G27C U38C C42U, the self-cleavage stood at 0.09.

With A12C C37U G40U, the self-cleavage turned out to be 0.

As for G7A G27C G35C, the self-cleavage is 0.01.

On to A11C G30U C42A, for which the self-cleavage was found to be 0.01.

For A6U G19C U20A G29U G30U C37G, the self-cleavage is 0.1.

Regarding C8A A24G G33C C42U, the self-cleavage came to 0.1.

As for G1A A6U G19C, the self-cleavage is 1.01.

Take C3U A6U C23A C37G G44U: the self-cleavage amounted to 0.02.

On to U38A U43A C45U, for which the self-cleavage is 0.05.

Take A6C G21U G22U G29A C42A: the self-cleavage was determined as 0.07.

Consider G19C G27C G33C, for which the self-cleavage amounted to 0.18.

Consider A26G U32A G33C G35A U38A, for which the self-cleavage is 0.06.

For A6G A12C A14C C42U, the self-cleavage amounted to 0.03.

G5A C10A U32C C37U G40A: the self-cleavage came to 0.03.

Turning to G22U G33A C37U, the self-cleavage is 0.17.

As to A4G G30A G33U U38C, the self-cleavage came to 0.07.

Turning to G7U A11C A14G G27U, the self-cleavage was 0.

As to U9C C23A A24C C37A, the self-cleavage is 0.02.

In the case of A6C C8A G22A G27U U32A U38G, the self-cleavage was found to be 0.11.

Regarding C8A A16C G17C G27A, the self-cleavage is 0.17.

In the case of G22C G33A C42U, the self-cleavage was found to be 0.06.

With G5A C10U A25U, the self-cleavage stood at 0.12.

For G27C G30C G35A, the self-cleavage was 0.04.

Turning to A16G G17C A41G, the self-cleavage stood at 0.04.

With A4U U9C A11U, the self-cleavage was 0.02.

Regarding G2C A11G C45U, the self-cleavage came to 0.02.

Consider A4U A6G G22A, for which the self-cleavage came out at 0.04.

For the variant A4C G5U U9A A14C G17A G21C G44U, the self-cleavage was found to be 0.02.

Turning to A11G G21A A41G G44U, the self-cleavage stood at 0.01.

For the variant G21A C31G G35U, the self-cleavage is 0.06.

Turning to G1U C13A A24G, the self-cleavage is 0.16.

Turning to C3G G17A G29U U34A C37A, the self-cleavage came out at 0.06.

As for A14G U20C C42G, the self-cleavage came out at 0.03.

In the case of A12G C37A C46U, the self-cleavage was found to be 0.07.

With C8U G22U C46A, the self-cleavage stood at 0.31.

G2U A12U U28C: the self-cleavage is 0.

C10G C18U A25U G44A C45A: the self-cleavage was 0.04.

Turning to G2U C3A U9G G17C A26U G36A C37A, the self-cleavage worked out at 0.46.

Take C10G C13A G33C: the self-cleavage is 0.03.

Take U38C A41U C46U: the self-cleavage is 0.15.

As for G5A U32C C37U, the self-cleavage is 0.03.

Regarding C18U U28C U32G, the self-cleavage was found to be 0.07.

In the case of C3A A12C G30A U38C, the self-cleavage came out at 0.05.

In the case of G1A U9C C15U, the self-cleavage worked out at 0.07.

Take C23U U28C A41U: the self-cleavage came out at 0.22.

In the case of C15U G27A U34G A41C, the self-cleavage was 0.03.

In the case of G5C A11U G19U C42U G44U, the self-cleavage was 0.01.

In the case of C10G C13U C23U, the self-cleavage is 0.05.

With A12G G17A A25C, the self-cleavage came to 0.

For the variant C23A C45G C46U, the self-cleavage was 1.68.

Take G2A A4G A25C C31A U32C: the self-cleavage was found to be 0.06.

For the variant A4C C10A C15U U28G A39G G40C, the self-cleavage was determined as 0.

Take G36U A39C G44C: the self-cleavage amounted to 0.07.

Take A4U G40A C46A: the self-cleavage was 0.04.

For the variant A4G G33C U34C A41C C42A, the self-cleavage is 0.01.

Consider A4C G5C G29A G30U G36U A41G, for which the self-cleavage was determined as 0.19.

In the case of C15A G36A C37G C45A C46U, the self-cleavage worked out at 0.

As to G19A G21A G33A G35A G36C, the self-cleavage is 0.22.

In the case of C13A A16C C45A, the self-cleavage was found to be 0.02.

As for G7U C8A G21A, the self-cleavage came out at 0.45.

For the variant G1U G5A C46A, the self-cleavage came to 0.18.

In the case of G1C G5U A12U A24G U43C, the self-cleavage came out at 0.03.

Regarding A14U G30A A39G C42G C46G, the self-cleavage worked out at 0.01.

For the variant C8A C18G G29A U43A, the self-cleavage turned out to be 0.02.

Turning to G5U G19U G22C U38G, the self-cleavage stood at 0.01.

As for A4G G7A G36A G40A, the self-cleavage stood at 0.32.

With G29A U38G C45G C46A, the self-cleavage is 0.01.

A14U C18A G21U A41G: the self-cleavage was found to be 0.03.

Turning to G22U G27U G44A, the self-cleavage is 0.36.

G19C G29U G30U: the self-cleavage was found to be 0.81.

Take C10A C23G U32G A41U C46G: the self-cleavage worked out at 0.02.

As for A4U U20C G21U, the self-cleavage is 0.14.

For G1C C10G A16U, the self-cleavage was determined as 0.

Consider A4U C8U A26G, for which the self-cleavage is 0.11.

Consider G5A G7A U9A G29U U38A, for which the self-cleavage was 0.23.

On to A24G G27C U43A, for which the self-cleavage was determined as 0.12.

In the case of A4U C8A A11C, the self-cleavage came to 0.09.

As for C3U A4U G19C G35U C37A, the self-cleavage amounted to 0.08.

Turning to A4G A24C U38A, the self-cleavage was 0.11.

As to G1A A11C C18U U28A, the self-cleavage was determined as 0.05.

G5C G21A C23U C37G: the self-cleavage is 0.02.

On to C13U G17A G19U G33U, for which the self-cleavage stood at 0.05.

With G1C A24U C45A, the self-cleavage amounted to 0.03.

As for C31A U38G A41G, the self-cleavage turned out to be 0.04.

For the variant A4C C8U A25U, the self-cleavage was 0.05.

In the case of G7C G19C C42U, the self-cleavage came to 0.08.

Consider C10G A11C C46A, for which the self-cleavage was 0.01.

Turning to C10A C18G C37A, the self-cleavage was 0.01.

Regarding C10U A26C G30A C37A G44U C46A, the self-cleavage came to 0.02.

Take U20A C23G U32A: the self-cleavage amounted to 0.06.

As to C8A U20G A24G C37A, the self-cleavage was found to be 0.17.

For the variant C15A G17A C18U C31A G36C, the self-cleavage came to 0.02.

C15U G27C C45G: the self-cleavage was found to be 0.11.

A4G A11C C18G G44C: the self-cleavage was determined as 0.03.

On to G2A G27C G29U G44U, for which the self-cleavage was found to be 0.81.

As to C15A A24U G35C G40C U43C, the self-cleavage came to 0.

Consider G2U C10A G27U C31U, for which the self-cleavage was determined as 0.01.

Turning to G5A G7C G29C G30A C46A, the self-cleavage is 0.1.

On to A4G C13A G17C G35C, for which the self-cleavage worked out at 0.15.

Consider U9C C10U G21U A25C G29U U38G, for which the self-cleavage turned out to be 0.01.

With G2A U32C G35U C45U, the self-cleavage was 0.4.

A11C G36U C45U: the self-cleavage is 0.01.

Consider C8A G19U A26U G29A U43C, for which the self-cleavage was 0.07.

For the variant C3U G44A C45G, the self-cleavage came out at 0.1.

For A6G A12U A24U, the self-cleavage came to 0.08.

With G7C A14G G27U U32A, the self-cleavage is 0.25.

For G2C G21U G29A U34C, the self-cleavage was 0.12.

Turning to C10A A12G G21U G29C, the self-cleavage came out at 0.01.

As for A12C A16G G40U, the self-cleavage was 0.02.

Consider A14C G29A C31A C37U, for which the self-cleavage stood at 0.11.

As to C15U C18A G19A C42U, the self-cleavage turned out to be 0.17.

Regarding G19A U32C C45A, the self-cleavage worked out at 0.02.

For G17C C37A A41C, the self-cleavage is 0.04.

A4U A25C G29A G40U: the self-cleavage amounted to 0.11.

Take C3G A4C A16U G17U G27A: the self-cleavage stood at 0.22.

Turning to G1A A24C G30U U38G, the self-cleavage was 0.02.

Regarding C10G U28G C37A C42G C45A, the self-cleavage amounted to 0.01.

With G17U A39C A41C, the self-cleavage was 0.02.

In the case of G22A G36U G44A C45G, the self-cleavage came to 0.01.

Consider C18U G29U G36A G40A, for which the self-cleavage amounted to 0.07.

Consider U28G G35A U43G, for which the self-cleavage amounted to 0.26.

On to G5U C8U G36A, for which the self-cleavage came out at 0.45.

For the variant G5C G17C U34G, the self-cleavage worked out at 0.2.

Turning to A6U C13A A39G, the self-cleavage is 0.28.

For the variant A16C A24G A25C U28G A39C G40U, the self-cleavage turned out to be 0.

G2U G5A U9G A25C G44A: the self-cleavage was determined as 0.05.

Turning to C13G A25C G27A G29A G36U, the self-cleavage came out at 0.1.

Regarding A6G U9C A12C U38A, the self-cleavage was determined as 0.

As for C13U U38C C42U G44U, the self-cleavage was 0.
